Reference: patent publication US20250270341A1 (Alector, published 2025)

B1: CD98hc.05.006 (2+1 bispecific antibody) (bispecific antibody)
heavy 1: EVRLLESGGGLVQPGGSLRLSCAASGFTFSNYAMGWVRQAPGKGLEWVSAISGSGGSTYYADSVKGRFTTSRDDSKNALYLQMNSLRAEDTAVYYCARGGPGWYAADVWGQGTTVTVSSASTKGPSVFPLAPSSKSTSGGTAALGCLVKDYFPEPVTVSWNSGALTSGVHTFPAVLQSSGLYSLSSVVTVPSSSLGTQTYICNVNHKPSNTKVDKKV[here human IgG1 Fc with changes without letters]GGGGSGGGGSGGGGSEVKLVESGGNLVQPGGSLKLSCAASGFTFSGYSMSWVRQTPDKRLEWVAYIGNGGDSTYYPYTVKGRFTISRDNAKNTLYLQMNSLKSEDSAMYYCARQYVNYPFFDYWGQGTTLTVSSGGSEGKSSGSGSESKSTGGSDIVMSQSPSSLTVSVGAKIILGCKSSQSLLYSGNQKNYLAWYQQKPGQSPKLLIYWASTRESGVPDRFTGSGSGTDFTLTISSVKAEDVAVYYCQQYYTYPPAFGAGTKLEIK
heavy 2: EVRLLESGGGLVQPGGSLRLSCAASGFTFSNYAMGWVRQAPGKGLEWVSAISGSGGSTYYADSVKGRFTTSRDDSKNALYLQMNSLRAEDTAVYYCARGGPGWYAADVWGQGTTVTVSS[here human IgG1 constant region with changes without letters]
light: DIQMTQSPSSLSASVGDRVTITCRASQSISSYLNWYQQKPGKAPKLLIYAASSLQSGVPSRFSGSGSGTDFTLTISSLQPEDFATYYCQQADLPAFAFGGGTKVEIKRTVAAPSVFIFPPSDEQLKSGTASVVCLLNNFYPREAKVQWKVDNALQSGNSQESVTEQDSKDSTYSLSSTLTLSKADYEKHKVYACEVTHQGLSSPVTKSFNRGEC
B2: CD98hc.05.144 (2+1 bispecific antibody) (bispecific antibody)
heavy 1: EVRLLESGGGLVQPGGSLRLSCAASGFTFSNYAMGWVRQAPGKGLEWVSAISGSGGSTYYADSVKGRFTTSRDDSKNALYLQMNSLRAEDTAVYYCARGGPGWYAADVWGQGTTVTVSSASTKGPSVFPLAPSSKSTSGGTAALGCLVKDYFPEPVTVSWNSGALTSGVHTFPAVLQSSGLYSLSSVVTVPSSSLGTQTYICNVNHKPSNTKVDKKV[here human IgG1 Fc with changes without letters]GGGGSGGGGSGGGGSEVQLVESGGALVKPGGSLKLSCAASGFAFSSFDMSWVRQTPERRVEWVAYISGGGGSTYHPDTVKGRFAISRDNAKNTLYLHMNSLKSEDTAMYYCVRQGSRPWFAYWGQGTLVTVSSGGSEGKSSGSGSESKSTGGSDFVMSQSPSSLTVSVGEKVTMTCKSSQSLLYSYTQKNYLAWYQQKPGQSPNLLIYWASTRESGVPDRFAGSGSGTDFTLTISSVEAEDLAVYYCQQYSNYPPTFGGGTKLEIK
heavy 2: EVRLLESGGGLVQPGGSLRLSCAASGFTFSNYAMGWVRQAPGKGLEWVSAISGSGGSTYYADSVKGRFTTSRDDSKNALYLQMNSLRAEDTAVYYCARGGPGWYAADVWGQGTTVTVSS[here human IgG1 constant region with changes without letters]
light: B1 light
B3: CD98hc.05.081 (2+1 bispecific antibody) (bispecific antibody)
heavy 1: EVRLLESGGGLVQPGGSLRLSCAASGFTFSNYAMGWVRQAPGKGLEWVSAISGSGGSTYYADSVKGRFTTSRDDSKNALYLQMNSLRAEDTAVYYCARGGPGWYAADVWGQGTTVTVSSASTKGPSVFPLAPSSKSTSGGTAALGCLVKDYFPEPVTVSWNSGALTSGVHTFPAVLQSSGLYSLSSVVTVPSSSLGTQTYICNVNHKPSNTKVDKKV[here human IgG1 Fc with changes without letters]GGGGSGGGGSGGGGSEVQLQQSRPELVKPGASVKMSCKASGYTFTSYVMHWVKQKPGQGLEWIGYISPYNGDTKYNEKFKGKATLTSDISSTTAYMELSSLTSEDSGVYYCARPGSSPSWFAYWGQGTLVTVSSGGSEGKSSGSGSESKSTGGSDIVMTQFPATLSVTPGDRVSLSCRASQSISNYLHWYQQKSHESPRLLIKYASQSISGIPSRFSGSGSGSDFTLSINSVEPEDVGVYYCQNGHSFPYMYTFGGGTKLEIK
heavy 2: EVRLLESGGGLVQPGGSLRLSCAASGFTFSNYAMGWVRQAPGKGLEWVSAISGSGGSTYYADSVKGRFTTSRDDSKNALYLQMNSLRAEDTAVYYCARGGPGWYAADVWGQGTTVTVSS[here human IgG1 constant region with changes without letters]
light: B1 light
B4: CD98hc.05.007 (2+1 bispecific antibody) (bispecific antibody)
heavy 1: EVRLLESGGGLVQPGGSLRLSCAASGFTFSNYAMGWVRQAPGKGLEWVSAISGSGGSTYYADSVKGRFTTSRDDSKNALYLQMNSLRAEDTAVYYCARGGPGWYAADVWGQGTTVTVSSASTKGPSVFPLAPSSKSTSGGTAALGCLVKDYFPEPVTVSWNSGALTSGVHTFPAVLQSSGLYSLSSVVTVPSSSLGTQTYICNVNHKPSNTKVDKKV[here human IgG1 Fc with changes without letters]GGGGSGGGGSGGGGSDVKLVESGGDLVKPGGSLKLSCAASGFTFSSYSMSWVRQTPEKRLEWVATITSGGSYTYFPDSVKGRFTISRDNAKNTLYLQVSNLKSEDTAMYYCTRGPSFGNYLDYWGQGTTLTVSSGGSEGKSSGSGSESKSTGGSDILMTQSPSSMSASLGDTVSITCHASQGISSNIGWLQQKPGKSFKGLIYRGTNLEDGVPSRFSGSGSGADYSLTISSLESEDFADYYCVQYAHFPYTFGGGTKLEIK
heavy 2: EVRLLESGGGLVQPGGSLRLSCAASGFTFSNYAMGWVRQAPGKGLEWVSAISGSGGSTYYADSVKGRFTTSRDDSKNALYLQMNSLRAEDTAVYYCARGGPGWYAADVWGQGTTVTVSS[here human IgG1 constant region with changes without letters]
light: B1 light
B5: CD98hc.05.052 (2+1 bispecific antibody) (bispecific antibody)
heavy 1: EVRLLESGGGLVQPGGSLRLSCAASGFTFSNYAMGWVRQAPGKGLEWVSAISGSGGSTYYADSVKGRFTTSRDDSKNALYLQMNSLRAEDTAVYYCARGGPGWYAADVWGQGTTVTVSSASTKGPSVFPLAPSSKSTSGGTAALGCLVKDYFPEPVTVSWNSGALTSGVHTFPAVLQSSGLYSLSSVVTVPSSSLGTQTYICNVNHKPSNTKVDKKV[here human IgG1 Fc with changes without letters]GGGGSGGGGSGGGGSDMQLQESGPGLVKPSQSLSLTCTVTGYSITSDYAWNWIRQFPGNKLEWMGFISYSGTTSYTPSLKRRISITRDTSKNQFFLRLNSVTPEDTATYYCAKSAFYGNVWFAYWGQGTLVTVSSGGSEGKSSGSGSESKSTGGSQFVLTQSPAIMSASPGEKVTISCSASSSVSYMFWYQQKPGSSPKPWISHTSNLASGVPARFSGSGSGTSYSLTISNMEAEDAATYYCQQFHDYPWTFGGGTKLEIK
heavy 2: EVRLLESGGGLVQPGGSLRLSCAASGFTFSNYAMGWVRQAPGKGLEWVSAISGSGGSTYYADSVKGRFTTSRDDSKNALYLQMNSLRAEDTAVYYCARGGPGWYAADVWGQGTTVTVSS[here human IgG1 constant region with changes without letters]
light: B1 light
B6: CD98hc.05.126 (2+1 bispecific antibody) (bispecific antibody)
heavy 1: EVRLLESGGGLVQPGGSLRLSCAASGFTFSNYAMGWVRQAPGKGLEWVSAISGSGGSTYYADSVKGRFTTSRDDSKNALYLQMNSLRAEDTAVYYCARGGPGWYAADVWGQGTTVTVSSASTKGPSVFPLAPSSKSTSGGTAALGCLVKDYFPEPVTVSWNSGALTSGVHTFPAVLQSSGLYSLSSVVTVPSSSLGTQTYICNVNHKPSNTKVDKKV[here human IgG1 Fc with changes without letters]GGGGSGGGGSGGGGSEVKLVESGGNLVQPGGSLKLSCAASGFTFSGYPMSWVRRTPDKRLEWVAYIGSGGDSTYYPYAVKGRFTISRDNAKNTLYLQMNSLKSEDSAMYYCARQYDNYPFFDYWGQGTTLTVSSGGSEGKSSGSGSESKSTGGSDFVMSQSPSSLTVSVGAKVIMSCKSSQSLLYSGNQKNYLAWYQQKPGQSPKLLIYWASTRESGVPDRFTGSGSGTDFTLTISSVKAEDLAVYYCQQYYTYPPTFGAGTKLEIK
heavy 2: EVRLLESGGGLVQPGGSLRLSCAASGFTFSNYAMGWVRQAPGKGLEWVSAISGSGGSTYYADSVKGRFTTSRDDSKNALYLQMNSLRAEDTAVYYCARGGPGWYAADVWGQGTTVTVSS[here human IgG1 constant region with changes without letters]
light: B1 light

target: T1, cyno TfR AVI-His (cyno, UniProt H9EXL1 89-760 (rhesus entry)); assay: ELISA, 1-30 ug/mL
T1 construct: control protein
Description: (§1) Blocking buffer was removed and human, cyno, or mouse Avi-His-tagged CD98hc and Avi-His-tagged human TfR polypeptides were added at 1 μg/ml in ELISA diluent and captured for 1 hour at room temperature. After washing three times with 300 μl of PBST (PBS+0.05% Tween20, Thermo 28352), the hybridoma cell culture supernatants or 1 μg/ml of commercially available purified mouse anti-human CD98hc monoclonal antibody (Sigma Aldrich, Cat #SAB 4700503) and rat anti-mouse CD98hc antibody (Bio-Rad Laboratories, Hercules, CA, Cat #MCA2684) were added (50 μl/well) to each well. After 30 minutes of incubation at room temperature, the plates were washed three times with 300 μl of PBST. […] After a final set of washes (3×300 μl in PBST), 50 μl/well of BioFx TMB substrate (Surmodics, Eden Praire, MN, Cat #TMBW-1000-01) was added to the wells. The reaction was then quenched after 5-10 mins with 50 μl/well of 2N sulfuric acid. The plates were read for absorbance at 450 nm on a SpectraMax M5 (Molecular Devices, Sunnyvale, CA) using SoftMax Pro software.
(§2) Purified 2+1 anti-CD98hc bispecific antibodies were screened for binding to human and cyno CD98hc by ELISA as in Example 6. Purified 2+1 bispecific antibodies were screened at concentrations ranging from 1-30 μg/mL. ELISA binding to human and cyno CD98 and control cyno TfR AVI-His tagged proteins as a ratio to secondary antibody alone were calculated, and values are listed in Table 10A. Purified 2+1 bispecific antibodies were also screened for their ability to bind CHO cells overexpressing human or mouse CD98hc or cells endogenously expressing human CD98hc by FACS. […] Data was acquired on a FACS Canto (BD Biosciences).

**Q.** How did the “ELISA ratio to 2nd only” value turn out when B1 was run?
**A.** 1

**Q.** With B2 as the binder, how does the “ELISA ratio to 2nd only” value read?
**A.** 1

**Q.** With B3 as the binder, how does the “ELISA ratio to 2nd only” value read?
**A.** 1

**Q.** B4 was tested. Which “ELISA ratio to 2nd only” value did it give?
**A.** 1

**Q.** Which “ELISA ratio to 2nd only” value does the source give for B5 here?
**A.** 1

**Q.** How did the “ELISA ratio to 2nd only” value turn out when B6 was run?
**A.** 1

target: T2, huCD98hc ECD Avi-His (human, UniProt P08195 105-529); assay: ELISA, 1-30 ug/mL
T2 construct: biotinylated on the Avi tag where captured on streptavidin; also called Human CD98-AVI-His; Human CD98hc-AVI-His
T2 sequence: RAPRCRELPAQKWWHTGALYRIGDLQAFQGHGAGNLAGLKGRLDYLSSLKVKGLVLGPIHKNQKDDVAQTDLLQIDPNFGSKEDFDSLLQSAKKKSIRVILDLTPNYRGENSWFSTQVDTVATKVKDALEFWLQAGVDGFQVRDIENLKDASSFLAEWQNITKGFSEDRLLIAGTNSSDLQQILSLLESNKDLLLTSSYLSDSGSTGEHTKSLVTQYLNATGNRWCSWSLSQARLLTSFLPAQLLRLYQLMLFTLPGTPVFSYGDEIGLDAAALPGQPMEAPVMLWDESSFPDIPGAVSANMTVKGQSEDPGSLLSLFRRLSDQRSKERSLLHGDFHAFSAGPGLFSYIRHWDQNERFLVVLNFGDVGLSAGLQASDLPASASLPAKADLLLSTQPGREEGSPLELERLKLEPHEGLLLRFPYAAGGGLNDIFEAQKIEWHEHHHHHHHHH
Description: as §1, §2

**Q.** For B1, which “ELISA ratio to 2nd only” value is on record?
**A.** 38

**Q.** B2 was tested. Which “ELISA ratio to 2nd only” value did it give?
**A.** 24

**Q.** Which “ELISA ratio to 2nd only” value does the source give for B3 here?
**A.** 25

**Q.** B4 was tested. Which “ELISA ratio to 2nd only” value did it give?
**A.** 38

**Q.** Which “ELISA ratio to 2nd only” value does the source give for B5 here?
**A.** 27

**Q.** With B6 as the binder, how does the “ELISA ratio to 2nd only” value read?
**A.** 36

Target: T3, Cyno CD98hc ECD Avi-His (cynomolgus macaque, UniProt P08195 105-529 (human entry))
T3 construct: biotinylated on the Avi tag where captured on streptavidin; also called Cyno CD98-AVI-His; Cyno CD98hc-AVI-His
T3 chain: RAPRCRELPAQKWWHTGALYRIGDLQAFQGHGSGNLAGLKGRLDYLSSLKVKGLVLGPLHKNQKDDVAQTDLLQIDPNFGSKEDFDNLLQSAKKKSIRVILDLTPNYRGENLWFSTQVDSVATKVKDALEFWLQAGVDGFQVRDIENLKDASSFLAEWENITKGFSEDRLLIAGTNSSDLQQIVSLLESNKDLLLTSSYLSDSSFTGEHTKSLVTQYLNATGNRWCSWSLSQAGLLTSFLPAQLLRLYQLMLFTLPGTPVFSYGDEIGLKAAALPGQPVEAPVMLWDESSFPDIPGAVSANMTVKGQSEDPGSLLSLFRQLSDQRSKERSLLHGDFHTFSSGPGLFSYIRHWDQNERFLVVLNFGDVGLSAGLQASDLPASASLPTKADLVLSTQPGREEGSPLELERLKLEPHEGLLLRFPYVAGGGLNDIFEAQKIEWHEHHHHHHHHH
Assay: ELISA, 1-30 ug/mL
Description: as §1, §2

**Q.** Which “ELISA ratio to 2nd only” value does the source give for B1 here?
**A.** 16

**Q.** B2 was tested. Which “ELISA ratio to 2nd only” value did it give?
**A.** 6

**Q.** For B3, which “ELISA ratio to 2nd only” value is on record?
**A.** 6

**Q.** B4 was tested. Which “ELISA ratio to 2nd only” value did it give?
**A.** 31

**Q.** For B5, which “ELISA ratio to 2nd only” value is on record?
**A.** 19

**Q.** For B6, which “ELISA ratio to 2nd only” value is on record?
**A.** 14
